ChEMBL document CHEMBL4888484, “Replenishing the malaria drug discovery pipeline: Screening and hit evaluation of the MMV Hit Generation Library 1 (HGL1) against asexual blood stage Plasmodium falciparum ,using a nano luciferase reporter read-out” (2022)
Out of some 150,000 compounds screened, about 540 (0.36%) showed an effect of 50% or more. The list shows a part of the results.

These compounds were tested on Plasmodium falciparum (assay: Primary screen in NF54 nanoGlo assay, in single point, at 2uM, 72h; a lower Z score goes with more inhibition). Settings: timepoint 72 hour.
Type: functional, Erythrocyte
For `Cn1cc(C(=O)NCc2noc(C3CC3)n2)cn1`, the “% Inhibition” value was -4% and the Z score was 0.44.
In the case of `CC(C)CNC(=O)c1cc2cc(NC(=O)c3cccc(F)c3)ccc2n1Cc1cccc(F)c1`, the “% Inhibition” value was -12% and the Z score was 1.49.
`c1ccc(CCc2noc([C@H]3CCn4ccnc4C3)n2)cc1` was tested, and the “% Inhibition” value was -3% and the Z score was 0.45.
`O=C(CN1CCc2ncnc(N3CCOCC3)c2C1)N1CCCC1` was tested, and the “% Inhibition” value was 5% and the Z score was -0.58.
With `CCC1CC(c2nc(Cc3csc(C(C)OC)n3)no2)CCO1` (stereo unspecified) the “% Inhibition” value was -6% and the Z score was 0.74.
`CC(C)c1cncc(NC(=O)Cc2ccn(C)n2)c1` was tested, and the “% Inhibition” value was -8% and the Z score was 0.94.
`COCCN1CC[C@@]2(CCC1=O)CN(c1ncccc1F)CCN2C` was tested, and the “% Inhibition” value was -1% and the Z score was 0.12.
In the case of `Cc1cnc([C@H]2CCN(S(=O)(=O)c3ccc4c(c3)CCC4)C2)n1C(C)C`, the “% Inhibition” value was -2% and the Z score was 0.24.
In the case of `CCCc1cc(CNC(=O)c2ccc(N[C@@H](C)c3nncn3C)nc2)on1`, the “% Inhibition” value was 5% and the Z score was -0.69.
For `CC(c1nnc(-c2ccccc2F)s1)N1CCCC(N(C)C)CC1` (stereo unspecified), the “% Inhibition” value was -2% and the Z score was 0.31.
With `Nc1nonc1/C(=N\OC(=O)Nc1ccccc1)N1CCCCC1` the “% Inhibition” value was 6% and the Z score was -0.86.
For `Cc1noc(C)c1C(=O)N[C@H]1CCOC[C@@H]1OCc1ccccc1`, the “% Inhibition” value was 7% and the Z score was -0.87.
With `O=C(Nc1ccc(O)cc1)C1CCN(C(=O)C2CC3CCC2C3)CC1` (stereo unspecified) the “% Inhibition” value was -10% and the Z score was 1.09.
For `Cn1cccc1-c1cc2n(n1)CCC(=O)N2CCCC(=O)NCCc1ccco1`, the “% Inhibition” value was -5% and the Z score was 0.96.
For `O=C1CC(C2CCCCN2Cc2ccc(Br)o2)CN1` (stereo unspecified), the “% Inhibition” value was -7% and the Z score was 1.14.
For `COCC(C)NC1C2CCC(C2)C1C(=O)OCc1ccccc1` (stereo unspecified), the “% Inhibition” value was -3% and the Z score was 0.4.
With `Cc1noc(C)c1S(=O)(=O)N1CCC[C@H]1C(=O)Nc1ccc(Oc2ccccc2)cc1` the “% Inhibition” value was -33% and the Z score was 3.9.
`CCNC(=O)C1Cc2ccccc2N2CCN(c3ccc(OC)cc3)CC12` (stereo unspecified) was tested, and the “% Inhibition” value was 5% and the Z score was -0.62.
In the case of `COc1cccn(CC(=O)N(Cc2cnn(C)c2)C2CCCCC2)c1=O`, the “% Inhibition” value was 5% and the Z score was -0.68.
In the case of `Cn1ccc(CCNC(=O)NCCc2c[nH]c3ccc(F)cc23)n1`, the “% Inhibition” value was -3% and the Z score was 0.44.
With `Cc1nnc(N(C)Cc2ccc(-n3cccn3)cc2)o1` the “% Inhibition” value was 4% and the Z score was -0.55.
In the case of `Cc1nccn1[C@@H](C)Cc1nc(-c2ccc(F)c(F)c2)n[nH]1`, the “% Inhibition” value was 5% and the Z score was -0.74.
For `CC(C)(C)c1cnc(COC(=O)c2nc(C3CC3)n3ccccc23)o1`, the “% Inhibition” value was -9% and the Z score was 1.19.
In the case of `c1cc(Oc2ccc3nnnn3n2)cc(-n2cncn2)c1`, the “% Inhibition” value was -10% and the Z score was 1.51.
For `Cc1ccc(NC(C)C)c(NC(=O)CS(=O)(=O)C(C)(C)C)c1`, the “% Inhibition” value was 2% and the Z score was -0.2.
For `COc1ccc(CC(=O)Nc2ccc3c(c2)C(=O)N(C)c2cc(C)ccc2O3)cc1`, the “% Inhibition” value was -1% and the Z score was 0.22.
In the case of `CN(C(=O)NCc1nn(C)c2cccc(Cl)c12)C1CCS(=O)(=O)CC1`, the “% Inhibition” value was 3% and the Z score was -0.41.
`COCc1ccccc1C=C(C)CN1CCO[C@@H](CN2CCN(C)CC2)C1` was tested, and the “% Inhibition” value was -2% and the Z score was 0.43.
In the case of `O=C(Nc1cccc(-c2nnco2)c1)c1cc(F)cc(F)c1`, the “% Inhibition” value was -22% and the Z score was 1.83.
In the case of `Cc1ccccc1[C@@H](NC(=O)NCCN1C(=O)CNC1=O)C(C)(C)C`, the “% Inhibition” value was 4% and the Z score was -0.58.
For `CCC(C)C(NC(=O)OCc1ccccc1)C(=O)NC1CCN(Cc2ccccc2)CC1` (stereo unspecified), the “% Inhibition” value was -7% and the Z score was 1.36.
`O=C1CC[C@@H](C(=O)N(Cc2ccccc2)Cc2ccccc2)N1` was tested, and the “% Inhibition” value was 2% and the Z score was -0.24.
In the case of `CN(C)CCn1ccc(NC(=O)N(C)Cc2nccn2C(F)F)n1`, the “% Inhibition” value was 0% and the Z score was 0.03.
For `Cc1ccc2c(Nc3cccc(Cl)c3C)c(C(=O)N3CCCCCC3)cnc2n1`, the “% Inhibition” value was -2% and the Z score was 0.37.
`O=C1COc2ccc(-n3ccnc3-c3cccc(-n4cccn4)c3)cc2N1` was tested, and the “% Inhibition” value was -13% and the Z score was 1.45.
In the case of `CCC(=O)N1CCc2cc(N3C[C@@H](C(=O)NCc4ccc(F)cc4)CC3=O)ccc21`, the “% Inhibition” value was -1% and the Z score was 0.14.
For `CONC(=O)C1(NC2=NS(=O)(=O)c3ccccc32)CCCC1`, the “% Inhibition” value was 0% and the Z score was -0.05.
In the case of `COc1cccc(Cn2c(C)c(CNC3CCCCCC3)c(C(=O)O)c2C)c1`, the “% Inhibition” value was 5% and the Z score was -0.89.
In the case of `COCc1nc(-c2ccc(C)nc2)n(CCO)n1`, the “% Inhibition” value was -7% and the Z score was 1.38.
For `COc1ccc(NC(=O)Cn2cc(-c3nnc(C(C)C)o3)ccc2=O)cc1`, the “% Inhibition” value was -8% and the Z score was 1.35.
`Cc1nn(C)c(C)c1[C@H](C)c1nc(COCC(F)(F)C(F)F)no1` was tested, and the “% Inhibition” value was 7% and the Z score was -1.23.
For `CCc1oc2c(Cl)cc(NC(=O)N3C[C@@H]4CC[C@H](C3)C(=O)N4)cc2c1C`, the “% Inhibition” value was 3% and the Z score was -0.63.
For `Cc1ccc(C)c(C2CN(C(=O)c3cc(C)on3)C(C)CO2)c1` (stereo unspecified), the “% Inhibition” value was -12% and the Z score was 2.38.
